Among all 310,000 compounds or so, about 14,000 (4.5%) showed an effect of 50% or more. The effect is printed as a negative number. The list shows a part of the results.
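Note: peak tail current of the secondary pulse compared with the same well before compound.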

human ether-à-go-go-related gene (hERG) potassium channel, sequence (Q12809 whole entry, looked up): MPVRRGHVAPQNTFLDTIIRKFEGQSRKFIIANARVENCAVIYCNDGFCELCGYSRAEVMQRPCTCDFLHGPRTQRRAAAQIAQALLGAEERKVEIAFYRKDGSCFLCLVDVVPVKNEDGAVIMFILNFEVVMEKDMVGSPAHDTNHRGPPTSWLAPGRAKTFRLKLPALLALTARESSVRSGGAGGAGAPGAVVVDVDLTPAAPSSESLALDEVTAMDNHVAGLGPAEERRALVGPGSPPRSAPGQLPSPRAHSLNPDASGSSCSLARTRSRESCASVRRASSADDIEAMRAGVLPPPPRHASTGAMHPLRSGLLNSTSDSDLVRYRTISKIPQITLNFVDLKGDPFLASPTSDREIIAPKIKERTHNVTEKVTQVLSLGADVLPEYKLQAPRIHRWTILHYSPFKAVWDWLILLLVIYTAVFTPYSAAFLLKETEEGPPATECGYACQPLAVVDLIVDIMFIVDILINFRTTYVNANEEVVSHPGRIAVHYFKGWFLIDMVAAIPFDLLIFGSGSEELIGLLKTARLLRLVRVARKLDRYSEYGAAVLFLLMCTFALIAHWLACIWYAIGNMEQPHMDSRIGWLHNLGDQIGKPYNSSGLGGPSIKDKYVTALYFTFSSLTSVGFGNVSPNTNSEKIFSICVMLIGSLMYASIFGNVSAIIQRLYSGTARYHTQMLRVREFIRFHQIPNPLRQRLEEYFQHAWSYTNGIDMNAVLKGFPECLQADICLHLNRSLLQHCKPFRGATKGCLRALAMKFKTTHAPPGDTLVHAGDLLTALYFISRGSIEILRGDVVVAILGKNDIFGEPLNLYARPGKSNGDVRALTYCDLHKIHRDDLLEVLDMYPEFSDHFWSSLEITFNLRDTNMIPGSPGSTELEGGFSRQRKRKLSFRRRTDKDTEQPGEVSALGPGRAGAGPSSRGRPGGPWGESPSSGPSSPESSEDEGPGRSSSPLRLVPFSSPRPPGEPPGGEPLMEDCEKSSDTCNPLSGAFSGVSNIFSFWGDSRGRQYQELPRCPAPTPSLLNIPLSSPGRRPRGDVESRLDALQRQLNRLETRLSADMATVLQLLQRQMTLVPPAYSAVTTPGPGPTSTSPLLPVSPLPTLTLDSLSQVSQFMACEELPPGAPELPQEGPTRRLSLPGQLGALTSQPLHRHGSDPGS

This assay concerns the target human ether-à-go-go-related gene (hERG) potassium channel (human, UniProt Q12809). As to the kind of experiment: primary screen, population patch clamp on CHO cells stably expressing hERG. The method, then:
Briefly, Chinese hamster ovary (CHO) cells stably expressing the hERG channel were dislodged from tissue culture flasks and dispensed into PPC plates. […] During the recording, background leak currents were estimated by a 100 ms step to -80 mV from an initial holding potential of -70 mV and subtracted from the subsequent current measurement. The campaign was conducted in two phases using slight differences in recording protocol. In the first phase, the initial voltage pulse used a 100 ms step to -30 mV from a holding potential of -70 mV, a 2 s conditioning step to +25 mV, and a 2 s test step to -30 mV. During the second phase of the screen, the potential during the conditioning step was raised to +45 mV. In both phases of the campaign, a secondary voltage pulse was applied using the same parameters as the second phase initial pulse. The initial and secondary pulses were applied in the absence of compound, and upon application of 1 μM and 10 μM test concentrations. […]
As for `Cc1cc(C)c(NC(=O)CNC(=O)Cc2sc(C)nc2-c2ccc(F)cc2)c(C)c1`, the “hERG current change (%, negative = inhibition) at 10uM” value was found to be 4.09%.

As for `Cc1noc(C)c1C(=O)Nc1nnc(-c2ccccc2)s1`, the “hERG current change (%, negative = inhibition) at 10uM” value amounted to 1.81%.

Turning to `O=C1CC(c2ccccc2)CN1C(=O)c1cncc(Br)c1` (stereo not drawn), the “hERG current change (%, negative = inhibition) at 10uM” value came to 5.75%.

Regarding `CSC1=NCCN1C(=O)C(C)(C)Oc1ccc(Cl)cc1`, the “hERG current change (%, negative = inhibition) at 10uM” value is given as -6.98%.

In the case of `CCc1ccc(NC(=O)CCc2nc3sc4c(c3c(=O)[nH]2)CCCC4)cc1`, the “hERG current change (%, negative = inhibition) at 10uM” value was -0.306%.

As for `COc1ccccc1-c1coc2c(CN3CCC(C)CC3)c(O)ccc2c1=O`, the “hERG current change (%, negative = inhibition) at 10uM” value was determined as 7.18%.

In the case of `CN(C)c1ccc(/C=N/NC(=O)CCc2c[nH]c3ccccc23)cc1`, the “hERG current change (%, negative = inhibition) at 10uM” value is given as -2.72%.

`C/C(Cn1cnc([N+](=O)[O-])n1)=N\NC(=O)c1ccc(F)cc1`: the “hERG current change (%, negative = inhibition) at 10uM” value is 1.88%.

Consider `Fc1ccc(-c2nnc(N3CCOCC3)c3ccccc23)cc1F`, for which the “hERG current change (%, negative = inhibition) at 10uM” value was -33.8%.

For the compound `CCN(CC)CCN1C(=O)C(=O)/C(=C(/O)c2ccc(F)cc2)C1c1cccnc1` (stereo not drawn), the “hERG current change (%, negative = inhibition) at 10uM” value was found to be 17.7%.

As for `Cc1c(NN=C(C#N)C#N)c(=O)n(-c2ccccc2)n1C`, the “hERG current change (%, negative = inhibition) at 10uM” value came out at 13.5%.

As to `Fc1ccc(-c2nnc(-c3ccc(Cl)cc3Cl)o2)cc1`, the “hERG current change (%, negative = inhibition) at 10uM” value was -12.6%.

With `Cc1[nH]c2ccccc2c1CC(=O)O`, the “hERG current change (%, negative = inhibition) at 10uM” value is 12.1%.

On to `COc1ccc(N(Cc2cc3ccc(C)cc3[nH]c2=O)C(C)=O)cc1`, for which the “hERG current change (%, negative = inhibition) at 10uM” value is recorded as -9.53%.

For the compound `CC(C)(C)C(=O)Nc1ccc(/C=C/C(=O)c2ccco2)cc1`, the “hERG current change (%, negative = inhibition) at 10uM” value came to 15.2%.

In the case of `Clc1cccc(-c2nc3nc4ccccc4nc3n2Cc2ccccc2)c1`, the “hERG current change (%, negative = inhibition) at 10uM” value is listed as 5.67%.

`O=c1c2c3c(sc2nc2n1CCC2)CCC3`: the “hERG current change (%, negative = inhibition) at 10uM” value was found to be 4.73%.

Turning to `O=C(O)c1cccc(NS(=O)(=O)c2ccc(NC(=O)c3ccco3)cc2)c1`, the “hERG current change (%, negative = inhibition) at 10uM” value came to 5.46%.

As for `Cc1cc(C(=O)CCl)c(C)n1CC1COc2ccccc2O1` (stereo not drawn), the “hERG current change (%, negative = inhibition) at 10uM” value is -13.2%.

Turning to `FC(F)(F)c1ccccc1NC(=S)NN=C1CCCCCC1`, the “hERG current change (%, negative = inhibition) at 10uM” value was determined as 23.5%.

For `O=C(NC(=S)Nc1cc(-c2nc3ccccc3[nH]2)ccc1Cl)c1ccc2c(c1)OCO2`, the “hERG current change (%, negative = inhibition) at 10uM” value came to 20%.

For the compound `COc1ccc2nc(NS(=O)(=O)c3ccc(NC(C)=O)cc3)sc2c1`, the “hERG current change (%, negative = inhibition) at 10uM” value is 14%.

Take `CCOc1ccc(-c2nn3c(-c4ccc(F)cc4)nnc3s2)cc1`: the “hERG current change (%, negative = inhibition) at 10uM” value is 9.44%.

In the case of `Cc1ccc(N2C(=O)N(Cc3ccccc3C)c3ccccc3S2(=O)=O)cc1`, the “hERG current change (%, negative = inhibition) at 10uM” value is -4.54%.

Take `N/C(=N/O)c1nc(N2CCCCC2)nc(N2CCCCC2)n1`: the “hERG current change (%, negative = inhibition) at 10uM” value amounted to 7.86%.

On to `Cc1ccc(C)c(NC(=O)c2cc(S(=O)(=O)N3CCCCC3)ccc2N2CCOCC2)c1`, for which the “hERG current change (%, negative = inhibition) at 10uM” value was -62.7%.

As to `O=C(NCC(c1ccc(F)cc1)N1CCOCC1)c1ccc(C(=O)c2ccccc2)cc1` (stereo not drawn), the “hERG current change (%, negative = inhibition) at 10uM” value is -31.9%.

Consider `Cc1[nH]c2ccccc2c1C(=O)CN1CCC(C)CC1`, for which the “hERG current change (%, negative = inhibition) at 10uM” value is listed as -6.58%.

Take `Cc1cccc(C2=N/C(=C\c3cccnc3)C(=O)O2)c1`: the “hERG current change (%, negative = inhibition) at 10uM” value is 12.2%.

For the compound `CCCC[N+]12CCC(CC1)C(Cc1ccccc1)C2.[Br-]` (stereo not drawn), the “hERG current change (%, negative = inhibition) at 10uM” value is reported as 21.9%.

For `O=C(NC1CCN(S(=O)(=O)c2ccccc2)CC1)c1cccc(F)c1`, the “hERG current change (%, negative = inhibition) at 10uM” value is 15%.

Turning to `N#CCSCC(=O)Nc1ccc(F)cc1`, the “hERG current change (%, negative = inhibition) at 10uM” value is listed as 2.54%.

For the compound `CC1CCN(CCNC(=O)CCS(=O)(=O)c2ccc(Br)cc2)CC1`, the “hERG current change (%, negative = inhibition) at 10uM” value is -16.6%.

As for `O=C1c2cccc3cc([N+](=O)[O-])cc(c23)C(=O)N1c1nncs1`, the “hERG current change (%, negative = inhibition) at 10uM” value is reported as 2.83%.

With `c1ccc(CN2CCN(CCCNc3ccc4nnc(-c5ccccc5)n4n3)CC2)cc1`, the “hERG current change (%, negative = inhibition) at 10uM” value is recorded as -59.7%.

In the case of `Cc1cc[n+](CC(=O)c2ccc(NC(=O)c3ccccc3)cc2)cc1.[Br-]`, the “hERG current change (%, negative = inhibition) at 10uM” value turned out to be 2.6%.

In the case of `CCOC(=O)/C(C#N)=C\c1cc(C)n(-c2ccccc2)c1C`, the “hERG current change (%, negative = inhibition) at 10uM” value amounted to 7.17%.

For the compound `CN(C)CCCN(C(=O)c1ccc(C(=O)c2ccccc2)cc1)c1nc2cc3c(cc2s1)OCO3.Cl`, the “hERG current change (%, negative = inhibition) at 10uM” value was -56.3%.

On to `O=c1c2ccccc2oc2nc(-c3ccco3)n(-c3ccccc3)c(=O)c12`, for which the “hERG current change (%, negative = inhibition) at 10uM” value is given as 1.76%.

Take `Cc1ccc(C(=O)N/C(=C\c2ccco2)C(=O)NCCN2CCOCC2)cc1C`: the “hERG current change (%, negative = inhibition) at 10uM” value is -3.01%.

With `CC(C)CCn1nnnc1C(c1ccc(F)cc1)N1CCN(C(=O)c2ccco2)CC1` (stereo not drawn), the “hERG current change (%, negative = inhibition) at 10uM” value was -38.1%.

For `O=C(Nc1cc(Cl)c(O)c(Cl)c1)C1CCCO1` (stereo not drawn), the “hERG current change (%, negative = inhibition) at 10uM” value was determined as 12%.

Take `Cc1ccc(SCC(=O)NCc2ccco2)cc1`: the “hERG current change (%, negative = inhibition) at 10uM” value is recorded as 3.39%.

On to `CN(C)NC(=O)C(NC(=O)c1ccccc1)C12CC3CC(CC(C3)C1)C2.Cl` (stereo not drawn), for which the “hERG current change (%, negative = inhibition) at 10uM” value is listed as 12.4%.

On to `O=C(NC1CC1)C1=C[C@@H](C2CCCCC2)C[C@@H](OCCCCO)O1`, for which the “hERG current change (%, negative = inhibition) at 10uM” value came out at 6.7%.

(Values after PMC4336329 (PLoS ONE, 2015).)
